Assay results published in patent US20230122503A1, “ANTI-PSMA RADIOCONJUGATES AND USES THEREOF” (Janssen Biotech, Inc., priority 2021, published 2023).

B1: PSMB1088 (antibody)
heavy: EVQLVESGGGVVQPGRSLRLSCAASGFTFSSYDMHWVRQAPGKGLEWVTVISFDGSNKYYVDSVKGRFTISRDNSKNTLYLQMNSLRAEDTAVYYCARTYYDILTGYSHYSYGMDVWGQGTTVTVSS[human IgG1 constant region not given here]
light: EIVMTQSPSSLSASVGDRVTITCRASQGISNYLAWYQQKPGKVPKLLIYATSTLQSGVPSRFSGSGSGTDFILTISSLQPEDVANYYCQKYNSAPFTFGPGTKVEIKRTVAAPSVFIFPPSDEQLKSGTASVVCLLNNFYPREAKVQWKVDNALQSGNSQESVTEQDSKDSTYSLSSTLTLSKADYEKHKVYACEVTHQGLSSPVTKSFNRGEC
B2: PSMB1098 (antibody)
heavy: QVQLVESGGGVVQPGRSLRLSCAASGFTFSTYGMHWVRQAPGKGLEWVAFISYDGSNKYYADSVKGRFTISRDNSKHTLYLQMNSLRAEDTAVYYCAGRDNLRFLEWFMDVWGQGTTVTVSS[human IgG1 constant region not given here]
light: EIVMTQSPATLSVSPGERATLSCRASQSVRSNLAWYQQKPGQAPRLLIYGASTRATGIPARFSGSGSGTEFTLTISSLQSEDFAVYYCHQYNDWPPYTFGQGTKVEIKRTVAAPSVFIFPPSDEQLKSGTASVVCLLNNFYPREAKVQWKVDNALQSGNSQESVTEQDSKDSTYSLSSTLTLSKADYEKHKVYACEVTHQGLSSPVTKSFNRGEC

Assays:
[1] = SE HPLC of purified antibodies (% monomer post protein A); assay type: physicochemical; conditions: post protein A purification
Method: SE HPLC of the purified antibodies was performed by running samples on a TOSOH TSKgel BioAssist G3SWxl column, in 0.2 M Na Phosphate pH 6.8 at 1 mL/min on a Waters Alliance HPLC for 20 min. The column effluent was monitored by absorbance at 280 nm. For a molecule to be considered a therapeutic lead, it is critical that it can be produced in substantial amounts with high purity and high yield. Typically, purification losses are higher, and yields are lower with aggregation-prone proteins. The initial monomer percentage is generally considered a good surrogate indicator of the manufacturability of a protein.

[2] = target: T1, recombinant human ECD (human PSMA) (Homo sapiens, UniProt Q04609); assay: SPR (BIACORE 8K) binding of anti-PSMA antibodies to recombinant human PSMA ECD; conditions: antibody captured on anti-Fc C1 chip, PSMA antigen titrated, 1:1 Langmuir model
T1 construct: made in house
Method: The binding affinity of purified anti-PSMA antibodies to the recombinant human ECD was determined by surface plasmon resonance (SPR) using a BIACORE 8K instrument. The antibodies were captured on a goat anti-Fc antibody-modified C1 chip and titrated with 3-fold serial dilutions of PSMA antigen spanning concentrations of 1 nM to 11.1 nM. The association and dissociation were monitored for 3 and 15 minutes, respectively, using a flow rate of 50 μL/min. Raw binding data was referenced by subtracting the analyte binding signals from blanks and analyzed using a 1:1 Langmuir binding model using the Biacore Insight evaluation software to obtain the kinetics which were used to calculate the binding affinity.

[3] = Thermal stability by nanoDSF (Tm, Tagg); assay type: physicochemical; conditions: 20° C. to 95° C. at 1.0° C./minute
Method: The thermal stability (conformational stability) of the anti-PSMA antibodies was determined by nanoDSF method using a Prometheus instrument. Measurements were made by loading sample into 24 well capillary from a 384 well sample plate. Duplicate runs were performed. The thermal scans span from 20° C. to 95° C. at a rate of 1.0° C./minute. The data was processed to obtain integrated data and first derivation analysis for 330 nm, 350 nm, Ratio 330/350, and scatter data from which thermal transitions, onset of unfolding, Tm and Tagg were obtained.
“Tm” or “mid-point temperature” is the temperature midpoint of a thermal unfolding curve. It refers to the temperature where 50% of the amino acid sequence is in its native conformation and the other 50% is denatured. A thermal unfolding curve is typically plotted as a function of temperature. Tm is used to measure protein stability. […] The Tm can be readily determined using methods well known to those skilled in the art such as Circular Dichroism Spectroscopy, Differential Scanning Calorimetry, Differential Scanning Fluorimetry (both intrinsic and extrinsic dye based), UV spectroscopy, FT-IR and Isothermal Calorimetry (ITC).
“Tagg” refers to the temperature at which the protein starts to aggregate either through dimerization or oligomerization. The aggregation temperature detects the onset of aggregation, the temperature at which a protein will show a tendency to aggregate. Tagg can be determined by differential scanning calorimetry (DSC), Differential Scanning Fluorimetry (DSF) or by circular dichroism (CD). These techniques can detect small changes in the conformation of the protein and therefore detect the starting point of aggregation. Tagg values can be lower or higher than Tm. In cases where Tagg is lower than Tm, the protein either dimerizes and/or oligomerizes first and then starts unfolding later at higher temperatures than the Tagg. In cases where Tagg is higher than Tm, the protein starts to unfold first and then aggregates at a higher temperature than the Tm. Both events are commonly observed and depend on amino acid composition and protein conformation.
Thermal unfolding parameters, Tm or midpoint temperature of thermal unfolding and Tagg or aggregation temperature of selected anti-PSMA antibodies are shown in Table 23.

[4] = system: C4-2b cells, a cell line with high PSMA expression; assay: Cytotoxicity of MMAF-conjugated anti-PSMA antibodies on C4-2B cells (Cell Titer Glo, 72h); assay type: cell-based, human; conditions: MMAF-conjugated antibody, DAR ~4.0, 72h, read-out: Cytotox (IC50) C4-2B, DAR ~4.0
Method: mAbs were conjugated to a monomethyl auristatin F (MMAF) payload in a 96-well format to enable screening for optimal ADC candidates. 220 ug of each mAb (1 mg/mL in dPBS) was mixed with TCEP to a final concentration of 3 mM and incubated at 37° C. for 1r. Reduced mAbs were captured on protein A resin (Protein A HP Multitrap, GE) and washed 3× with 100 mM potassium phosphate containing 2 mM EDTA at pH 7.5 to remove TCEP.
A mixture of maleimide-PEG4-vcPAB-MMAF and N-ethyl maleimide (60:40 molar ratio, 100 uM total in 100 mM potassium phosphate containing 2 mM EDTA at pH 7.5) was prepared and the resin with bound mAb was resuspended in 300 uL of the maleimide mixture. Samples were rotated for 1 hr at RT followed by quenching with N—Ac-L-Cys (2.6 mM final). Resin was washed with dPBS and then bound mAbs were eluted with 100 mM sodium acetate pH 3.5 into 0.2-0.25 volumes of 1 M Tris pH 8.0 to neutralize. ADC concentrations and DAR (panel average of 4.0±0.5) of the eluted ADCs were determined by UV-Vis spectrophotometry at 248 and 280 nm based on previous reports (Hamblett, et. al., (2004) Clinical Cancer Research, 10, 7063-7070; Cruz and Kayser (2009) Cancers 11(6), 870)
C4-2b cells, a cell line with high PSMA expression, were cultured in RPMI1640 containing GlutaMAX, 25 mM HEPES and 10% fetal bovine serum (FBS) and then plated in white 96 well plates at 3000 cells per well (60 uL/well). Twenty four hours after plating, cells were treated with varying concentrations of the ADCs and then incubated at 37 C, 5% CO2. Following 72h of treatment, cell viability was assessed by Cell Titer Glo (Promega), according to manufacturer's instructions. Relative luminescence units (RLU) were detected in an Envision plate reader (Molecular Devices) and then normalized to untreated controls. The concentration at which there was 50% toxicity was determined by fitting the values to a 3-point sigmoidal curve where the top was constrained to 100% and interpolating the X-value at Y=50%.

T1 sequence (Q04609 with tags, fused parts or gaps): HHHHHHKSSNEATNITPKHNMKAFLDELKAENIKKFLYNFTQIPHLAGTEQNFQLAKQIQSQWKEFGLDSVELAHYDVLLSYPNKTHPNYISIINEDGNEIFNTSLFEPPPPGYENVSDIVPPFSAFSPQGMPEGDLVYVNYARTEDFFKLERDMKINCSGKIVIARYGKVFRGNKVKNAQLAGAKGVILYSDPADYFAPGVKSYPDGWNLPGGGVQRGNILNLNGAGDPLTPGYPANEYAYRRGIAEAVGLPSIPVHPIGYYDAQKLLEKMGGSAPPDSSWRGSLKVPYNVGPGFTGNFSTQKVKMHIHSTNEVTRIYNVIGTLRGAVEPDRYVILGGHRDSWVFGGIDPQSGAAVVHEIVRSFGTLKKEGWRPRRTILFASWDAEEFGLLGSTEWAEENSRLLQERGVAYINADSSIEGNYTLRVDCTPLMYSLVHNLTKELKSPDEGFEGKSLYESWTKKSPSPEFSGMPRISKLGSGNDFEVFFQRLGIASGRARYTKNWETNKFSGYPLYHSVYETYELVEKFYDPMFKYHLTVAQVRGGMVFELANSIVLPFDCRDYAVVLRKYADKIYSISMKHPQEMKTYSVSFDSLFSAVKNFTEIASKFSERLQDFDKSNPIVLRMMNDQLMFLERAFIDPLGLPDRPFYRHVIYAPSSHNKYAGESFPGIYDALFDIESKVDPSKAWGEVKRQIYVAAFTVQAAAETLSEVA

| Molecule | SEC (% monomer post protein A) [1] [%] | Koff [2] [s⁻¹] | Kon [2] [M⁻¹ s⁻¹] | Fab Tm [3] [°C] | Tagg [3] [°C] | IC50 [4] [nM] |
| --- | --- | --- | --- | --- | --- | --- |
| B1 | 96.4 | 2.85e-05 | 29400 | 75.9 | 76.7 | 0.067 |
| B2 | 96.4 | 2.85e-05 | 52700 | 77.7 | 77.8 | 0.0564 |
